Hit rate of the full screen: of about 310,000 compounds, about 14,000 (4.5%) showed an effect of 50% or more. The effect is printed as a negative number. The list shows a part of the results. Where a SMILES comes first, the peptide text is derived from it. The star is where a group is joined. Cbz = O=C(OCc1ccccc1)*
What follows are compounds tested against human ether-à-go-go-related gene (hERG) potassium channel (human, UniProt Q12809) (assay: primary screen, population patch clamp on CHO cells stably expressing hERG).
Sequence of human ether-à-go-go-related gene (hERG) potassium channel (Q12809 whole entry, looked up): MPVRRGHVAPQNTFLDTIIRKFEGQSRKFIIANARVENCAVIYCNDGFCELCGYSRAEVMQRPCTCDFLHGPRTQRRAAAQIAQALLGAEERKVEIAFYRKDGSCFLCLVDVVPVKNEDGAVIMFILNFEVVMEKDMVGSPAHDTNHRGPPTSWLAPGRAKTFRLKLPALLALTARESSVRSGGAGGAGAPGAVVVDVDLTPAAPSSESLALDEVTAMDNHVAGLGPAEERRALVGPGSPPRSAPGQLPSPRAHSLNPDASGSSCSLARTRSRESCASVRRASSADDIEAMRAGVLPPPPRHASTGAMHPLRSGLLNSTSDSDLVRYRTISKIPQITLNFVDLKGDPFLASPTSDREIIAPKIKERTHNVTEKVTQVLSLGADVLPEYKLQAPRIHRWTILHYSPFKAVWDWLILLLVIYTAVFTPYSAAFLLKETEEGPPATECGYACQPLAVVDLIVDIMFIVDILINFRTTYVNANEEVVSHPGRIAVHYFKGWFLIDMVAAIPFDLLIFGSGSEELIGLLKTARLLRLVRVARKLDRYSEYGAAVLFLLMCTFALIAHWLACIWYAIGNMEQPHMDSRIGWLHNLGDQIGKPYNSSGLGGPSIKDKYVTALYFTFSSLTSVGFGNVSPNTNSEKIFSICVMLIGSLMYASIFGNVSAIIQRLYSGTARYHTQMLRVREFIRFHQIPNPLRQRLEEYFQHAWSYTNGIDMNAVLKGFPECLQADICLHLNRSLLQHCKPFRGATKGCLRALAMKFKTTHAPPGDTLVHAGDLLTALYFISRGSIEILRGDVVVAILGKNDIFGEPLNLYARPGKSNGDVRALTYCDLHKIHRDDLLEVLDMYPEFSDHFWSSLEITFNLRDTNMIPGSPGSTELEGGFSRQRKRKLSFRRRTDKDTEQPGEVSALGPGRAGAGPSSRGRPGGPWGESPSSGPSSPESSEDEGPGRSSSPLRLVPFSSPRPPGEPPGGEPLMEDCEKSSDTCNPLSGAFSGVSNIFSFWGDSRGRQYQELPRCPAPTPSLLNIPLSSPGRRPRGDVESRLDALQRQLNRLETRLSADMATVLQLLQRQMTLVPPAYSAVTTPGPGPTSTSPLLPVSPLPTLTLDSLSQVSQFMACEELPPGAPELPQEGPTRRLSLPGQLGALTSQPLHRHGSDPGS
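Note: peak tail current of the secondary pulse compared with the same well before compound.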

Structure (SMILES)	hERG current change (%, negative = inhibition) at 10uM [%]
COc1ccc(OCCOC(=O)c2nc3nccc(C)n3n2)cc1	-3.15
Cn1c(CCNC(=O)c2ccco2)nc2ccccc21	-1.52
Cc1cnc(C(=O)OCC(=O)c2ccc(Br)s2)cn1	7.15
CC1(C(=O)O)CCC(C(=O)NNC(=O)c2ccccc2Cl)C1(C)C (stereo not drawn)	-5.75
O=C1NC(=O)C(c2ccc(F)cc2)N1 (stereo not drawn)	1.36
O=c1c(F)cn(C2CCCO2)c(=O)n1Cc1ccccc1F (stereo not drawn)	1.34
C=CCC1(CC=C)CCCN1C(=O)c1cc(COc2ccc(-n3cncn3)cc2)on1	-46.1
COc1ccc(N(CC(=O)NCCSc2ccccn2)S(=O)(=O)c2ccccc2)cc1OC	-3.38
O=C(NCCN1CCN(c2ccccc2)CC1)c1cccc(Br)c1	-60.2
COc1ccc(-c2[nH]ncc2CN(C)CC2CCCCO2)cc1F (stereo not drawn)	-30.8
C=CCN(c1ccc(C(=O)NC(C)C)cc1)S(C)(=O)=O	-8.06
CN(C)c1ccc(NS(=O)(=O)c2ccc(Cl)cc2)cc1	2.04
CC(C)[C@H](NC(=O)OCc1ccccc1)C(=O)N[C@@H](Cc1c[nH]c2ccccc12)C(=O)O (Cbz-Val-Trp-OH)	4.95
COC(=O)c1ccc(OCC(O)CN2CCN(C(=O)c3ccco3)CC2)cc1.O=C(O)C(=O)O (stereo not drawn)	-25.3
COc1cccc(N2CCN(C(=O)c3ccc(-c4ccccc4)cc3)CC2)c1	-49.5
CCCCn1nnc(NC(=O)C(c2ccccc2)c2ccccc2)n1	1.18
CN(Cc1ccccc1)C(NC(=O)c1ccco1)C(Cl)(Cl)Cl (stereo not drawn)	-23.9
CCCCC(=O)Nc1ccc(NC(=O)CC)cc1OC	2.43
Cc1ccc(C2(C)NC(=O)N(CC(=O)Nc3cc(C)on3)C2=O)cc1 (stereo not drawn)	-10.7
Br.COc1ccc(NC2=NCCCCC2)cc1	19.5
O=C(Nc1ccc(N2CCN(C(=O)c3ccccc3F)CC2)cc1)c1ncn[nH]1	-17.4
O=[N+]([O-])c1ccc2c(c1)nc1n2CCN(C2CCCCC2)C1	-39.3
Cc1ccc(C)c(-n2nnnc2SCC(=O)NCC2CCCO2)c1 (stereo not drawn)	-4.18

Structure (SMILES)	hERG current change (%, negative = inhibition) at 10uM [%]
COc1cccc(Cn2cc(/C=N/NC(=O)c3cc(O)cc(O)c3)c3ccccc32)c1	12.1
CCN1CCN(c2ccc(NC(=O)c3ccc4c(c3)[nH]c(=O)n4Cc3ccc(F)cc3)cc2)CC1	-4.37
COc1ccc(CONS(=O)(=O)c2ccc(NC(C)=O)cc2)cc1Cl	-29.1
COc1ccc(-c2nc3cc(C)ccn3c2NC(=O)c2ccccc2OC)cc1	5.28
COc1ccc(NC(=O)C2CC(=O)n3ncnc3N2)cc1 (stereo not drawn)	5.39
Cc1c(C#N)c(N)nc(Cl)c1C#N	25.9
CC1=[N+]([O-])C(C)(C)CC(C)(C)c2ccccc21	4.73
COC(=O)c1ccccc1NC(=O)[C@@H]1CCC(=O)N1C1OC(=O)c2c1ccc(OC)c2OC (stereo partly drawn)	2.55
CC1CCCC(C)N1C(=O)c1ccccc1Nc1ccc(SC(F)F)cc1 (stereo not drawn)	11.9
COc1ccc(CCNC(=O)[C@H](CCSC)NC(=O)N2CCn3c2nc2ccccc23)cc1OC	8.56
CC1(OC(=O)c2cccs2)C(=O)C=C2C=C(c3ccc(C#N)cc3)OC=C2C1=O (stereo not drawn)	0.00128
COC(=O)c1ccccc1NC(=O)CN1CCCCC1	9.99
Cc1ccc(-c2cnco2)cc1	11.9
O=C(CSC1=NS(=O)(=O)c2ccccc21)Nc1ccccc1	2.45
Cc1cc(NC(=O)c2ccco2)ccc1NC(=O)Cc1cccs1	-11
CCC(Sc1ccc2nnc(CCNS(=O)(=O)c3ccc(OC)cc3)n2n1)C(=O)OC (stereo not drawn)	-10.7
COc1ccc(CC(=O)c2ccc(O)cc2O)cc1OC	2
O=C(O)c1ccc(F)c(S(=O)(=O)Nc2ccccc2Cl)c1	-0.571
NC(=O)CC(c1ccccc1)c1ccc2c(c1)OCO2 (stereo not drawn)	-0.772
O=C(NC(=S)Nc1ncc(Br)cc1Br)c1cncc(Br)c1	15.5
COc1ccc(OCCCCc2c(C)n[nH]c2C)cc1.Cl	-11.5
CCCCN=C1NN=C(c2ccc(C)c(C)c2)CS1	8.1
